The test system of the experiment is transgenic soybean expressing mutated PPO. The experiment in a line: Soybean segregating T1 individuals, greenhouse spray test (injury 0-9). Format: in vivo, Glycine max. Particulars: 1 week after treatment.

“And” between values parts separate entries of the source, which are not always exact repeats. Equal values may be shown once. Further values from the same series stand in other lists.

As for `CCOc1cc(Oc2ccc(C(F)(F)F)cc2Cl)ccc1[N+](=O)[O-]` [Oxyfluorfen], the “injury (0-9 point scale)” value runs as follows: (SDS-10642 AmtuPPX2L R128A_F420L, Oxyfluorfen 1200 g ai/ha) 3 (5×) and 4 (2×) and 2; (SDS-10652 AmtuPPX2L L397D_F420V, Oxyfluorfen 1200 g ai/ha) 5 (3×) and 4 (4×) and 3; (SDS-10787 AmtuPPX2L R128A_F420L, Oxyfluorfen 1200 g ai/ha) 6 (2×) and 5 (4×) and 8 and 9; (SDS-11034 AmtuPPX2L R128A_F420V, Oxyfluorfen 600 g ai/ha) 6; (SDS-11034 AmtuPPX2L R128A_F420V, Oxyfluorfen 1200 g ai/ha) 5 (3×) and 6 (5×); (wild type, Oxyfluorfen 1200 g ai/ha) 9 (6×) and 8 (2×).

For `Cc1nn(-c2cc(NS(C)(=O)=O)c(Cl)cc2Cl)c(=O)n1C(F)F` [Sulfentrazon, sulfentrazone], the “injury (0-9 point scale)” value was 3 (2×) and 1 and 2 (4×) and 0 (SDS-10642 AmtuPPX2L R128A_F420L, Sulfentrazone 700 g ai/ha); 2 and 3 and 7 (2×) and 4 (3×) and 6 (SDS-10652 AmtuPPX2L L397D_F420V, Sulfentrazone 700 g ai/ha); 3 and 4 (2×) and 6 (3×) and 5 (2×) (SDS-10787 AmtuPPX2L R128A_F420L, Sulfentrazone 700 g ai/ha); 3 (4×) and 2 (2×) and 1 and 4 (SDS-11034 AmtuPPX2L R128A_F420V, Sulfentrazone 700 g ai/ha); 9 (wild type, Sulfentrazone 700 g ai/ha).

The values above are taken from patent US11866720B2, “Transgenic or non-transgenic plants with mutated protoporphyrinogen oxidase having increased tolerance to herbicides” (priority 2013, dated 2024).
